Source: article PMC5986797, “Laminin heparin-binding peptides bind to several growth factors and enhance diabetic wound healing” (Nature Communications, 2018)
Results are given in words; binding and its absence hold for the method and conditions named. Some results given as binding are weak or reduced against the parent protein; the word gives no strength.

By UniProt entry, the sequences of proteins in these tests, tags left out. Where a name states a change or a piece, a line headed by the entry shows the natural chain unless it says otherwise. Residues count along the entry.
laminin peptide LAMA4_(1408–1434) (Q16363, residues 1408-1434): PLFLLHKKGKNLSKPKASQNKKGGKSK
laminin peptide LAMA4_(1521–1543) (Q16363, residues 1521-1543): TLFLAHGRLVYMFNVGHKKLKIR
UniProt P55268: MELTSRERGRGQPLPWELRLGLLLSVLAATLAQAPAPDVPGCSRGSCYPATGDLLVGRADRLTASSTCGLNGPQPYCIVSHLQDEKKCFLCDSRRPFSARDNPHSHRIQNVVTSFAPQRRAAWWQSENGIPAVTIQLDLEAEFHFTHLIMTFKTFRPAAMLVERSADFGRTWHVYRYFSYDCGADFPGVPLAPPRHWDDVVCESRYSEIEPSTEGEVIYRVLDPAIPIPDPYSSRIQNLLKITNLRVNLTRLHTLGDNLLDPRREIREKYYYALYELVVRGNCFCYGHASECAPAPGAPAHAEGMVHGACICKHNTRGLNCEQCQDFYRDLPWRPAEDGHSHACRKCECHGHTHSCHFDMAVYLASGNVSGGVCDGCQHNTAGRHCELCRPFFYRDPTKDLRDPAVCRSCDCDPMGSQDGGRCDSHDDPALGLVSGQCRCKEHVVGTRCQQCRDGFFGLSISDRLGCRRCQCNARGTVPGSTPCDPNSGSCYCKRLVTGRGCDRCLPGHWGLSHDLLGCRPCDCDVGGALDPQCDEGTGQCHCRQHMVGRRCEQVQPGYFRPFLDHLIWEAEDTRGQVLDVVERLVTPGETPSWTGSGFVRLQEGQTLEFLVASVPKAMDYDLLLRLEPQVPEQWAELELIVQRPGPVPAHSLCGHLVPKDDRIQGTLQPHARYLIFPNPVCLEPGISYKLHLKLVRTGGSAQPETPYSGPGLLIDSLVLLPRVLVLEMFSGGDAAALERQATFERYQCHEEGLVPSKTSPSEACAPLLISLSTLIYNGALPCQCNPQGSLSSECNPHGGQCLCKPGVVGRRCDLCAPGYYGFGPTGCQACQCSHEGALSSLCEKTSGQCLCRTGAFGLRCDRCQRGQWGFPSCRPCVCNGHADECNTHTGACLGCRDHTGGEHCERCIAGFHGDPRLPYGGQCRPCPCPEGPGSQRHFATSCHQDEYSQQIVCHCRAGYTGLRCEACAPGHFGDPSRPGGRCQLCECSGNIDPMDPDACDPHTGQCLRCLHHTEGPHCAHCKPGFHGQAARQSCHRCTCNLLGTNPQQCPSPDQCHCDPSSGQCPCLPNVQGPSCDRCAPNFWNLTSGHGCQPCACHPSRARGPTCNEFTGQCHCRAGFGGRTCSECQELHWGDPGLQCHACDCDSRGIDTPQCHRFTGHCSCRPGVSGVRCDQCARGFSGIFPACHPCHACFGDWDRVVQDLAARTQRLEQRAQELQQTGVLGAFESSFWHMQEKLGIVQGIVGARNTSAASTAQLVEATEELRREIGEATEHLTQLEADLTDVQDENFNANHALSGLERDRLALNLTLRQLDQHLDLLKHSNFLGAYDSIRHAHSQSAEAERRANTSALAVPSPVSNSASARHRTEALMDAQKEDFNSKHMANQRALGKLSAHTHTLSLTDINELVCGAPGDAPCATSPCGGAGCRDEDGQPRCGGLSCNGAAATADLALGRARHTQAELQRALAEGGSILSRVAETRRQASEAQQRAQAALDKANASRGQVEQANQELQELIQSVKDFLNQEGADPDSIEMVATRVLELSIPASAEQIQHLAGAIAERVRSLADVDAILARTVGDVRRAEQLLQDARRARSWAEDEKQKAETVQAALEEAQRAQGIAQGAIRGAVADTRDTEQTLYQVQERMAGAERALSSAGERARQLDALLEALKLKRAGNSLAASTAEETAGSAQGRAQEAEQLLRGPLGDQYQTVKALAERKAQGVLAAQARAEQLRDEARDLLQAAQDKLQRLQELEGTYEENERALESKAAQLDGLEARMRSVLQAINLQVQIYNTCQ
UniProt P11047: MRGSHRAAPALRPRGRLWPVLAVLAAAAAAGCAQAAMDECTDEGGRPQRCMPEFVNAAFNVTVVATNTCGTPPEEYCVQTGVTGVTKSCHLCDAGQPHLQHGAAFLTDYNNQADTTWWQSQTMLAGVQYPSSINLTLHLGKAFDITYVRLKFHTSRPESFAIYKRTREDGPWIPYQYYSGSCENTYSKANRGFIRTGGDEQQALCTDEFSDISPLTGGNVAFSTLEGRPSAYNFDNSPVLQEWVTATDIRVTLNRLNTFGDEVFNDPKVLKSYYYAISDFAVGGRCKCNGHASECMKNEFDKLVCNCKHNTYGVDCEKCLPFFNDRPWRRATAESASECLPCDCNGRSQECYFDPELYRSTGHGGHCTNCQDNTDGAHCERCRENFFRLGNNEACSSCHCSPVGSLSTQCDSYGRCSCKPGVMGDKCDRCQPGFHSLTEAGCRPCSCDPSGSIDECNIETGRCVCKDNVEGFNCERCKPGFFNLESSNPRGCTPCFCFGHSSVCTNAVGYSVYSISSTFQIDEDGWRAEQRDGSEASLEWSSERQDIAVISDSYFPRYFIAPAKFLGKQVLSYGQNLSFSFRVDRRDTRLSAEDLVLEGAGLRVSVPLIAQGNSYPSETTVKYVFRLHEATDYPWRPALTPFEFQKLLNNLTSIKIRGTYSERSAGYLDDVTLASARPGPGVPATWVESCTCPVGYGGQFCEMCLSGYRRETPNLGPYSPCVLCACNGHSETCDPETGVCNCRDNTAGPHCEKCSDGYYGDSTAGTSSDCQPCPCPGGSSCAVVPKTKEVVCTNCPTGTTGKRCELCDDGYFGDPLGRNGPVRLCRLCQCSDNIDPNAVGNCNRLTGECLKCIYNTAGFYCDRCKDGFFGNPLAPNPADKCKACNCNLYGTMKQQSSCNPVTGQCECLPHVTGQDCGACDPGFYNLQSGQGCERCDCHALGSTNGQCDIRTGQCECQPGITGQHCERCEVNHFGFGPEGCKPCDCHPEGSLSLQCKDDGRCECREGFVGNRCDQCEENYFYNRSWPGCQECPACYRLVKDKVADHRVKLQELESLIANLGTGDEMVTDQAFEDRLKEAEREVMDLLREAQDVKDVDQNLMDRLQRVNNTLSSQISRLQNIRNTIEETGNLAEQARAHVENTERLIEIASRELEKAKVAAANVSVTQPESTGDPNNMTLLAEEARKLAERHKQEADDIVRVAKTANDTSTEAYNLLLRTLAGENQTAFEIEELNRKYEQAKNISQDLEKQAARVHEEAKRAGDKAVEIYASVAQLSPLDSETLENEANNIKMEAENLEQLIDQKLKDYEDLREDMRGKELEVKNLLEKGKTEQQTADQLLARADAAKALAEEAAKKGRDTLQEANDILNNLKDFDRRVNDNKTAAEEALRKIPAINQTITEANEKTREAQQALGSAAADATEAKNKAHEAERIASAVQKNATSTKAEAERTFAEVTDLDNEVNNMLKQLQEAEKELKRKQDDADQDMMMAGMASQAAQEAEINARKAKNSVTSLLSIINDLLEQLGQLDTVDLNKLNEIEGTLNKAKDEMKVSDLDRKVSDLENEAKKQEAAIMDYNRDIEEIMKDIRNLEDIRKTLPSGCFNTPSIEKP
UniProt P07942: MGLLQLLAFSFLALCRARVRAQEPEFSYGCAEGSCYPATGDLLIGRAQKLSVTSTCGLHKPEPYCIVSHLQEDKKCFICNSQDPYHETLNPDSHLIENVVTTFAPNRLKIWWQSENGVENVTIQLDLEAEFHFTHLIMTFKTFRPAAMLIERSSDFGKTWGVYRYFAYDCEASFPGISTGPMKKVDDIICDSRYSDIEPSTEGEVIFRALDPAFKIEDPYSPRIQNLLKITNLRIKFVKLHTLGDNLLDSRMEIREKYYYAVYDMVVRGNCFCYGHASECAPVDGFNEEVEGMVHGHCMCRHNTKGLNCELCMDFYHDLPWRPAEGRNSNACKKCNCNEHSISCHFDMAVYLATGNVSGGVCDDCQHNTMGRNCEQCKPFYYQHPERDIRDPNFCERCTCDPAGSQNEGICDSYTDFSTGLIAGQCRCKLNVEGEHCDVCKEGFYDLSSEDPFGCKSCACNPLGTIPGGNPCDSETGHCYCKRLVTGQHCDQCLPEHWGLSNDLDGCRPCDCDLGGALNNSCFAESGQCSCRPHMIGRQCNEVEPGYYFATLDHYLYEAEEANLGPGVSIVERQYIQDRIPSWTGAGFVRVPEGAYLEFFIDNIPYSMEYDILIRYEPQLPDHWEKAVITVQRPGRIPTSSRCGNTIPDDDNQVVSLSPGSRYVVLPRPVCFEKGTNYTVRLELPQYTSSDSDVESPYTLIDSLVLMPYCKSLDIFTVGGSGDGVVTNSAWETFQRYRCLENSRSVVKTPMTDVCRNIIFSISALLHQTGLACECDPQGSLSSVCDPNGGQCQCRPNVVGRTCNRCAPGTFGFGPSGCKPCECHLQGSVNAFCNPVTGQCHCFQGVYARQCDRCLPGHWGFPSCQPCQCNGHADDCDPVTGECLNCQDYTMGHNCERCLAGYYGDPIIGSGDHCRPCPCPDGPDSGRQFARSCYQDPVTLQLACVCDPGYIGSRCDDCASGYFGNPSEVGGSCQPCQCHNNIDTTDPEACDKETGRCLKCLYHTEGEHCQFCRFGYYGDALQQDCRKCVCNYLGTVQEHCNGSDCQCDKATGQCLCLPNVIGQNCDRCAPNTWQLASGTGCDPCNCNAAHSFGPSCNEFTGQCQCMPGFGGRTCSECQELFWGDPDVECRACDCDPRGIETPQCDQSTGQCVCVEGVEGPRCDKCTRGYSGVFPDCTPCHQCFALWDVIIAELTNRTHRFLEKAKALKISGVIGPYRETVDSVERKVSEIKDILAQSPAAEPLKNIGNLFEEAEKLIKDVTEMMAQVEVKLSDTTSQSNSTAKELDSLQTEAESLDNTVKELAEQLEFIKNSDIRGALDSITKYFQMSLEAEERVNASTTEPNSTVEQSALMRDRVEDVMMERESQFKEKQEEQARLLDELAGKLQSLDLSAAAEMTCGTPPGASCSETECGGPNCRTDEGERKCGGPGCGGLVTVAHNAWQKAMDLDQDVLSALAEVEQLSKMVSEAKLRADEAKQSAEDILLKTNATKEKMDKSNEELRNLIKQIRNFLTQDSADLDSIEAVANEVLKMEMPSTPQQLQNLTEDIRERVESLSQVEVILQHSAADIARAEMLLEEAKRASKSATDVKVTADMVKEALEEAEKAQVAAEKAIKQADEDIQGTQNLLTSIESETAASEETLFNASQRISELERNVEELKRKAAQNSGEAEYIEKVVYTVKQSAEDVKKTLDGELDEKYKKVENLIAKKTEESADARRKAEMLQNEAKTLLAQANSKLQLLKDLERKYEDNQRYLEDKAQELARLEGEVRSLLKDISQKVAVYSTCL
UniProt Q99075, residues 63-148: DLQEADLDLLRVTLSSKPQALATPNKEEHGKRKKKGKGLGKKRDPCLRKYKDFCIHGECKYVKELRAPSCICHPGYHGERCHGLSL
UniProt P48061, residues 22-89: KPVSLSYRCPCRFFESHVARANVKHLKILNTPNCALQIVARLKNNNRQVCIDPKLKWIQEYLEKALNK
UniProt P01138, residues 122-241: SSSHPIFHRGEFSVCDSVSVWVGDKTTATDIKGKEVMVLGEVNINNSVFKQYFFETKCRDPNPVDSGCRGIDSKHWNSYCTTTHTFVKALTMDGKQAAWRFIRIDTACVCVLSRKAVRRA
UniProt P05019, residues 49-118: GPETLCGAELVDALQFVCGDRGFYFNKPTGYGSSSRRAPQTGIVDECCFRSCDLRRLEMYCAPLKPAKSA
UniProt P05230, residues 16-155: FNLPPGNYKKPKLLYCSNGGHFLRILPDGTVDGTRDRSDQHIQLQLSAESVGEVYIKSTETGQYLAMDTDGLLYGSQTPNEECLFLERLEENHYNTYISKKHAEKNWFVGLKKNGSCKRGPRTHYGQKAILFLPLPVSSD
UniProt P18075, residues 293-431: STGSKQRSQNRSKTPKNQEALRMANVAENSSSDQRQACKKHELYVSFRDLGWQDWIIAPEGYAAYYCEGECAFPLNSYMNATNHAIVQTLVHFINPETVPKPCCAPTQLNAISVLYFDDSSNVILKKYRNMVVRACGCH
UniProt P09038, residues 143-288: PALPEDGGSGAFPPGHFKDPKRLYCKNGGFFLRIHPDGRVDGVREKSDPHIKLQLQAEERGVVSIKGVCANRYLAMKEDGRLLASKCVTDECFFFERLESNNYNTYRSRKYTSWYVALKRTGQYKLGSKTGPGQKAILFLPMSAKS
UniProt P01127, residues 82-190: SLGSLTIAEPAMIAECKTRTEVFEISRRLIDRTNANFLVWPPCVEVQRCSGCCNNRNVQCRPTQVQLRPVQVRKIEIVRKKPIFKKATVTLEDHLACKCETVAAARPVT
UniProt P34741, residues 19-144: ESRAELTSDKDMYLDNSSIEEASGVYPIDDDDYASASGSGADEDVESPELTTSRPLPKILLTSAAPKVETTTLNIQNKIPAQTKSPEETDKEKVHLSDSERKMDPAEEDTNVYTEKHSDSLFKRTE

Experiments:
[1] = molecular target: recombinant human laminin-421 (human) (UniProt Q16363+P55268+P11047); experiment: ELISA; plates coated with 10 μg/mL laminin isoform; 1 μg/mL GF for 60 min at RT in the absence or presence of 10 μM heparin; bound GF detected with an antibody for each GF; both purified
[2] = molecular target: recombinant human laminin-411 (human) (UniProt Q16363+P07942+P11047); experiment: as above
laminin-221 = laminin-221 (UniProt P24043); experiment: as above
[3] = molecular target: T1, laminin peptide LAMA5_(3312–3325) (human) (UniProt O15230); experiment: ELISA; plates coated with laminin peptide (10 µg/mL by the legend, 1 μg/mL by the methods); 1 μg/mL GF added; bound GF detected with an antibody for each GF; BSA-coated wells as control; both purified
T1 sequence (peptide): ARKASRRSRQPARH

[4] = molecular target: laminin peptide LAMA4_(1408–1434) (human) (UniProt Q16363); experiment: as above
[5] = molecular target: laminin peptide LAMA4_(1521–1543) (human) (UniProt Q16363); experiment: as above
[6] = molecular target: heparin-binding epidermal growth factor (HB-EGF) (UniProt Q99075); experiment: ELISA; plates coated with 50 nM GF or chemokine in PBS; 10 nM laminin isoform in PBS added; bound laminin detected with anti-LAMC1 or anti-LAMA3 polyclonal antibody; A450 signals greater than 0.1 taken as binding; BSA-coated wells as control; both purified
PlGF-1 (human) = molecular target: T2, PlGF-1 (human) (UniProt P49763); experiment: as above
T2 sequence: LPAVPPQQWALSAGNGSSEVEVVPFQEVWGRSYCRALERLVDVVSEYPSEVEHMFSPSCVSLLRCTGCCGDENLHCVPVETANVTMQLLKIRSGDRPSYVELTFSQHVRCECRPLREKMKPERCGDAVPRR

CXCL-12α = CXCL-12α (UniProt P48061); experiment: as above
[7] = molecular target: β-nerve growth factor (βNGF) (UniProt P01138); experiment: as above
FGF-6 = molecular target: T3, FGF-6 (UniProt P10767); experiment: as above
T3 sequence: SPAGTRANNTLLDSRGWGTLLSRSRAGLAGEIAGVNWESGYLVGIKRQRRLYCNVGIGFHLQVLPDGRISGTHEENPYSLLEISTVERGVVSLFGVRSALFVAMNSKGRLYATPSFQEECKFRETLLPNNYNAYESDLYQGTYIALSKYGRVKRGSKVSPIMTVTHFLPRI

IGF-1 = IGF-1 (UniProt P05019); experiment: as above
CXCL-11 = molecular target: T4, CXCL-11 (UniProt O14625); experiment: as above
T4 sequence: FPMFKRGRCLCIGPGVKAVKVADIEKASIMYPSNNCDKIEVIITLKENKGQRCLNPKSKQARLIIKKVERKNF

FGF-1 = FGF-1 (UniProt P05230); experiment: as above
BMP-4 = molecular target: T5, BMP-4 (UniProt P12644); experiment: as above
T5 sequence: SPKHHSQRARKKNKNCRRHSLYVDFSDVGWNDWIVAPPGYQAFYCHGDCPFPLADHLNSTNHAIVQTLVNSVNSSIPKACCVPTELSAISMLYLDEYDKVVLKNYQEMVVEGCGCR

BMP-7 = BMP-7 (UniProt P18075); experiment: as above
[8] = molecular target: T1, laminin peptide LAMA5_(3312–3325) (human); experiment: ELISA; plates coated with laminin peptide (10 µg/mL by the legend, 1 μg/mL by the methods); 1 μg/mL His-tagged syndecan added; detected with anti-histidine tag antibody; BSA-coated wells as control; both purified
[9] = molecular target: T6, laminin peptide LAMA3_(2932–2951) (human) (UniProt Q16787); experiment: as above
T6 sequence (peptide): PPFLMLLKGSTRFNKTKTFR

[10] = molecular target: laminin peptide LAMA4_(1408–1434) (human) (UniProt Q16363); experiment: as above
[11] = molecular target: laminin peptide LAMA4_(1521–1543) (human) (UniProt Q16363); experiment: as above
[12] = molecular target: T7, laminin peptide LAMA5_(3539–3550) (human) (UniProt O15230); experiment: as above
T7 sequence (peptide): TLPDVGLELEVR

[13] = molecular target: T8, laminin peptide LAMA3_(3031–3043) (human) (UniProt Q16787); experiment: as above
T8 sequence (peptide): KNSFMALYLSKGR

| Substance | binding [6] | binding (PlGF-1 (human)) | binding (CXCL-12α) | binding [7] | binding (FGF-6) | binding (IGF-1) | binding (CXCL-11) | binding (FGF-1) | binding (BMP-4) | binding (BMP-7) | further results |
| --- | --- | --- | --- | --- | --- | --- | --- | --- | --- | --- | --- |
| FGF-2 (from UniProt P09038 143-288) (ligand) | – | – | – | – | – | – | – | – | – | – | binding [1]: binds; binding [2]: binds; binding (laminin-221): binds; binding [3]: no binding (tested: 1 μg/mL); binding [4]: binds; binding [5]: binds |
| platelet-derived growth factor PDGF-BB (from UniProt P01127 82-190) (ligand) | – | – | – | – | – | – | – | – | – | – | binding [3]: no binding (tested: 1 μg/mL); binding [4]: binds; binding [5]: no binding (tested: 1 μg/mL) |
| recombinant human laminin-111 (from UniProt P25391 18-3075; P07942 22-1786; P11047 34-1609) (complex) | binds weakly | no binding (tested: 10 nM laminin) | no binding (tested: 10 nM laminin) | binds weakly | no binding (tested: 10 nM laminin) | no binding (tested: 10 nM laminin) | no binding (tested: 10 nM laminin) | no binding (tested: 10 nM laminin) | no binding (tested: 10 nM laminin) | no binding (tested: 10 nM laminin) | – |
| recombinant human laminin-211 (from UniProt P24043 23-3122; P07942 22-1786; P11047 34-1609) (complex) | binds weakly | no binding (tested: 10 nM laminin) | no binding (tested: 10 nM laminin) | binds weakly | no binding (tested: 10 nM laminin) | no binding (tested: 10 nM laminin) | no binding (tested: 10 nM laminin) | no binding (tested: 10 nM laminin) | no binding (tested: 10 nM laminin) | no binding (tested: 10 nM laminin) | – |
| recombinant human syndecan-2 (from UniProt P34741 19-144) (receptor) | – | – | – | – | – | – | – | – | – | – | binding [8]: binds weakly; binding [9]: binds weakly; binding [10]: binds; binding [11]: binds; binding [12]: no binding (tested: 1 μg/mL); binding [13]: binds weakly |

Second part, led by results:

| binding [6] | binding (PlGF-1 (human)) | binding (CXCL-12α) | binding [7] | binding (FGF-6) | binding (IGF-1) | binding (CXCL-11) | binding (FGF-1) | binding (BMP-4) | binding (BMP-7) | Substance | further results |
| --- | --- | --- | --- | --- | --- | --- | --- | --- | --- | --- | --- |
| binds weakly | no binding (tested: 10 nM laminin) | no binding (tested: 10 nM laminin) | binds weakly | no binding (tested: 10 nM laminin) | no binding (tested: 10 nM laminin) | no binding (tested: 10 nM laminin) | no binding (tested: 10 nM laminin) | no binding (tested: 10 nM laminin) | no binding (tested: 10 nM laminin) | recombinant human laminin-511 (from UniProt O15230 36-3695; P07942 22-1786; P11047 34-1609) (complex) | – |
| binds weakly | no binding (tested: 10 nM laminin) | no binding (tested: 10 nM laminin) | binds weakly | no binding (tested: 10 nM laminin) | no binding (tested: 10 nM laminin) | no binding (tested: 10 nM laminin) | no binding (tested: 10 nM laminin) | no binding (tested: 10 nM laminin) | no binding (tested: 10 nM laminin) | recombinant human laminin-521 (from UniProt O15230 36-3695; P55268 33-1798; P11047 34-1609) (complex) | – |
